{"source": "paper PMC4336329", "about": "(PLoS ONE, 2015)", "note": "Hit rate of the full screen: of about 310,000 compounds, about 14,000 (4.5%) showed an effect of 50% or more. Effects have a minus sign here. The list shows a part of the results.", "data": [{"molecular_target": "human ether-à-go-go-related gene (hERG) potassium channel (human, UniProt Q12809)", "sequence (Q12809 whole entry, looked up)": "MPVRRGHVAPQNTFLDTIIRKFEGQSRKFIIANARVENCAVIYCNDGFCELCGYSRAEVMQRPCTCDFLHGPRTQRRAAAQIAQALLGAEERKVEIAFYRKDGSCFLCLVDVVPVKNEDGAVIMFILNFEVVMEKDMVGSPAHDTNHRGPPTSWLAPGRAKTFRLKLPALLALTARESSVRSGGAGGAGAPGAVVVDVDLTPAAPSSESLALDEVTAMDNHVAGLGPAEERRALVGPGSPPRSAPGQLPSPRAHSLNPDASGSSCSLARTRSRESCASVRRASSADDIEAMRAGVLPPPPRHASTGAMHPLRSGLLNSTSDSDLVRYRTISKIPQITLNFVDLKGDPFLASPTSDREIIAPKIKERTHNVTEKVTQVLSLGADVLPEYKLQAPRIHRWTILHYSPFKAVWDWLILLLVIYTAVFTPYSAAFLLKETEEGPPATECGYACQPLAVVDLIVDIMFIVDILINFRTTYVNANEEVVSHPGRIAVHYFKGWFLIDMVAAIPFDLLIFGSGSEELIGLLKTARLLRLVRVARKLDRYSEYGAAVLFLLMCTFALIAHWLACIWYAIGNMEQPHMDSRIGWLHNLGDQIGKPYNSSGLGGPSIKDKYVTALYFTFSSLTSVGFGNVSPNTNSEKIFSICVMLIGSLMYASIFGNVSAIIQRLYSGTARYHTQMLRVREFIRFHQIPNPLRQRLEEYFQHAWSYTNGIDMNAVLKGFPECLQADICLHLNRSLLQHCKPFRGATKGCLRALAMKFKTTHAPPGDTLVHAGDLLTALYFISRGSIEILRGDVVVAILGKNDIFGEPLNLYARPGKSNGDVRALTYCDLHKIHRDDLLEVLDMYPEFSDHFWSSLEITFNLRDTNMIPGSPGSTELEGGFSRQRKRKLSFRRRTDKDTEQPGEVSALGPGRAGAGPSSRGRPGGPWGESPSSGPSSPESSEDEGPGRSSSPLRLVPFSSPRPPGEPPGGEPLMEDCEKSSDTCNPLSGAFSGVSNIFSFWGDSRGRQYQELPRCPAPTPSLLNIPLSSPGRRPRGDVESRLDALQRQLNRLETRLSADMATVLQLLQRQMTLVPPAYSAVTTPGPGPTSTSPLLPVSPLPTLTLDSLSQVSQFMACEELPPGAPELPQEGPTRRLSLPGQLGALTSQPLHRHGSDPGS", "test": "primary screen, population patch clamp on CHO cells stably expressing hERG", "units": {"hERG current change (%, negative = inhibition) at 10uM": "%"}, "values": [{"molecule": "CCn1nc(C)cc1C(=O)N1CCCC(N2CCN(c3cccc(Cl)c3)CC2)C1", "note": "(stereo not shown);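 further: peak tail current of the secondary pulse compared with the same well before compound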", "hERG current change (%, negative = inhibition) at 10uM": -35}, {"molecule": "CCCc1nnc(SCC(=O)N2C(C)CCCC2C)n1CC", "note": "(stereo not shown)", "hERG current change (%, negative = inhibition) at 10uM": 4.47}, {"molecule": "COc1ccc(NC(=O)CSCc2ccc(C#N)cc2)c(OC)c1", "hERG current change (%, negative = inhibition) at 10uM": -14.2}, {"molecule": "CCOc1ccc(N(C(=O)CNC(=O)c2ccco2)C(C(=O)NC2CCCC2)c2ccco2)cc1", "note": "(stereo not shown)", "hERG current change (%, negative = inhibition) at 10uM": -0.762}, {"molecule": "CCC1(c2ccc(F)cc2)NC(=O)N(CC(=O)NCC(=O)Nc2cccc(C)c2C)C1=O", "note": "(stereo not shown)", "hERG current change (%, negative = inhibition) at 10uM": -8.55}, {"molecule": "CC1(C)CC(N2CCC(=O)NC2=S)CC(C)(C)N1", "hERG current change (%, negative = inhibition) at 10uM": 3.04}, {"molecule": "O=C(O)c1cc(S(=O)(=O)NC2CCCc3ccccc32)ccc1O", "note": "(stereo not shown)", "hERG current change (%, negative = inhibition) at 10uM": 13.5}, {"molecule": "COc1ccccc1OCC(=O)O/N=C(\\N)c1ccccn1", "hERG current change (%, negative = inhibition) at 10uM": 12}, {"molecule": "Cc1oc(-c2ccccc2F)nc1CN1CCC(C(=O)NCCC2=CCCCC2)CC1", "hERG current change (%, negative = inhibition) at 10uM": -71.8}, {"molecule": "O=c1[nH]c2ccccc2n1C1CCN(CCCC(c2ccc(F)cc2)c2ccc(F)cc2)CC1", "hERG current change (%, negative = inhibition) at 10uM": -77.6}, {"molecule": "CCN(CC(=O)Nc1c(F)cccc1F)C(=O)COc1ccc2c(C)cc(=O)oc2c1", "hERG current change (%, negative = inhibition) at 10uM": 6.35}, {"molecule": "COc1ccc(NC(=S)NCCCN2CCOCC2)cc1", "hERG current change (%, negative = inhibition) at 10uM": 1.22}, {"molecule": "COc1cc2nc(N3CCN(C(=O)C4COc5ccccc5O4)CC3)nc(N)c2cc1OC.CS(=O)(=O)O", "note": "(stereo not shown)", "hERG current change (%, negative = inhibition) at 10uM": -38.9}, {"molecule": "Cc1ccc(S(=O)(=O)NCC2CCC(C(=O)NCCCOC(C)C)CC2)cc1", "note": "(stereo not shown)", "hERG current change (%, negative = inhibition) at 10uM": -17.2}, {"molecule": "O=C(Cc1ccccc1Cl)N/N=C/c1cccnc1", "hERG current change (%, negative = inhibition) at 10uM": -0.536}, {"molecule": "Cn1ncc(Br)c1C(=O)Nc1ccc(Cl)cn1", "hERG current change (%, negative = inhibition) at 10uM": 5.27}, {"molecule": "CC(C)(C)NC(=O)CCN(/N=C/c1ccncc1)C1=NS(=O)(=O)c2ccccc21", "hERG current change (%, negative = inhibition) at 10uM": -19.1}, {"molecule": "COc1ccc(NC(=O)CCNC(=O)Cn2cnc3sc4c(c3c2=O)CCCC4)cc1OC", "hERG current change (%, negative = inhibition) at 10uM": 11.5}, {"molecule": "Cc1ccc(-c2cc(C(=O)N/N=C/C=C/c3ccccc3)n[nH]2)s1", "hERG current change (%, negative = inhibition) at 10uM": -1.52}, {"molecule": "C=CCNC(=O)CSc1nnc(-c2ccccc2Cl)n1-c1c(C)n(C)n(-c2ccccc2)c1=O", "hERG current change (%, negative = inhibition) at 10uM": -5.62}, {"molecule": "COc1ccc(N2CCN(C(=O)CNC(=O)c3cn(-c4ccccc4OC)c(=O)c4ccccc34)CC2)cc1", "hERG current change (%, negative = inhibition) at 10uM": -43.9}, {"molecule": "COc1cc(CN2CCCC(CO)(Cc3cccc(Cl)c3)C2)cc2c1OCO2", "note": "(stereo not shown)", "hERG current change (%, negative = inhibition) at 10uM": -68.1}, {"molecule": "C=COc1ccc(N2C(=O)c3ccccc3OC2C)cc1", "note": "(stereo not shown)", "hERG current change (%, negative = inhibition) at 10uM": 0.982}, {"molecule": "OC(COc1ccc(CNCCc2ccc(C(F)(F)F)cc2)cc1)CN1CCCCC1", "note": "(stereo not shown)", "hERG current change (%, negative = inhibition) at 10uM": 14.3}, {"molecule": "COCCNC(=O)CSc1ccccc1C(=O)O", "hERG current change (%, negative = inhibition) at 10uM": 19.8}, {"molecule": "C[N+]1(C)CCCC(OC(=O)C(O)(c2ccccc2)c2ccccc2)C1.[Br-]", "note": "(stereo not shown)", "hERG current change (%, negative = inhibition) at 10uM": -1.3}, {"molecule": "NC(=O)C1=C[C@@H](c2coc3ccccc3c2=O)C[C@@H](OCc2ccc(CO)cc2)O1", "hERG current change (%, negative = inhibition) at 10uM": -31}, {"molecule": "C/C(=N\\Nc1ccccc1)c1c(O)[nH]c(=O)[nH]c1=O", "hERG current change (%, negative = inhibition) at 10uM": 10.7}, {"molecule": "CN1C(=O)C(C(=O)Nc2ccccc2F)c2ccccc21", "note": "(stereo not shown)", "hERG current change (%, negative = inhibition) at 10uM": -1.32}, {"molecule": "COc1cc(NC(=O)c2cccs2)ccc1NC(=O)Cc1ccccc1", "hERG current change (%, negative = inhibition) at 10uM": -7.06}, {"molecule": "CCCCc1cc(=O)oc2cc(C)cc(OCC(=O)NCC3CCC(C(=O)O)CC3)c12", "note": "(stereo not shown)", "hERG current change (%, negative = inhibition) at 10uM": -1.21}, {"molecule": "O=C(COC(=O)c1ccc(O)cc1O)NC1CCS(=O)(=O)C1", "note": "(stereo not shown)", "hERG current change (%, negative = inhibition) at 10uM": 12.9}, {"molecule": "COc1ccc(/C=N\\NC(=O)c2ccc(-c3ccccc3)cc2)cc1COC(C)=O", "hERG current change (%, negative = inhibition) at 10uM": -0.748}, {"molecule": "CCOc1cc(S(=O)(=O)N2CCC(Cc3ccccc3)CC2)c(OCC)cc1-n1cnnn1", "hERG current change (%, negative = inhibition) at 10uM": 11.3}, {"molecule": "CC(C)CCN1CCN(Cc2ccc(C#CCCO)cc2)CC1CCO", "note": "(stereo not shown)", "hERG current change (%, negative = inhibition) at 10uM": -6.37}, {"molecule": "COc1nc(C)nc2c1sc1nc3c(cc12)COC(C)(C)C3", "hERG current change (%, negative = inhibition) at 10uM": 12.5}, {"molecule": "O=C(OCC(=O)N1CCN(c2ccccc2)CC1)c1ncc(Cl)c(Cl)c1Cl", "hERG current change (%, negative = inhibition) at 10uM": -3.66}, {"molecule": "Cc1ccccc1N1C(=O)CC1(C#N)c1ccc(OCc2ccccc2)cc1", "note": "(stereo not shown)", "hERG current change (%, negative = inhibition) at 10uM": 17.6}, {"molecule": "O=C(Nc1cccc(Cl)c1)Nc1ccnc(-c2cccnc2)n1", "hERG current change (%, negative = inhibition) at 10uM": -3.2}, {"molecule": "O=C(c1ccc(F)cc1)N(NC(=O)C(O)(c1ccccc1)c1ccccc1)c1ccccc1", "hERG current change (%, negative = inhibition) at 10uM": -6.98}, {"molecule": "Cc1ccc(-c2csc(N3CCN(c4ccc5nc(-c6ccncc6)n(CCN6CCCCC6)c5c4)CC3)n2)cc1", "hERG current change (%, negative = inhibition) at 10uM": 23.2}, {"molecule": "Cc1cc2nc(CSc3ccccc3)cc(=O)n2[nH]1", "hERG current change (%, negative = inhibition) at 10uM": 11.6}, {"molecule": "CC1CCN(Cc2c(O)ccc3c(=O)c(-c4nc5ccccc5s4)c(N)oc23)CC1", "hERG current change (%, negative = inhibition) at 10uM": -48.5}]}]}
